Results published in PubChem BioAssay AID485281 (National Center for Advancing Translational Sciences (NCATS), 2010).
The whole screen tested about 350,000 compounds, of which about 260 (0.074%) were called active. Inconclusive results, whose numbers are uncertain, are shown with a selection of clear calls. Calls follow the shape of the dose curve; as a rule, active = well fitted inhibition curve with a large enough effect; inconclusive = small, poorly fitted or top-dose-only effect; inactive = no such curve, though single readings can be large or run the other way. Where the call is inconclusive, the potency comes from a doubtful curve fit.
% is scaled to controls: 0 for no effect and ±100 for the full control effect; potency is read from the fitted curve at half-maximal effect; tags tell the direction and shape of the fitted curve.
Also: nearly all actives have a fitted effect of over 20% in size.

Each compound was assayed against Ferritin light chain (Equus caballus) (UniProt P02791) (assay: qHTS Assay for Identification of Novel General Anesthetics). Conditions: apoferritin/1-aminoanthracene competitive binding, fluorescence; activity change, negative = displacement: at 77.5 µM (top of the series).
Sequence of UniProt P02791 (P02791 whole entry, looked up): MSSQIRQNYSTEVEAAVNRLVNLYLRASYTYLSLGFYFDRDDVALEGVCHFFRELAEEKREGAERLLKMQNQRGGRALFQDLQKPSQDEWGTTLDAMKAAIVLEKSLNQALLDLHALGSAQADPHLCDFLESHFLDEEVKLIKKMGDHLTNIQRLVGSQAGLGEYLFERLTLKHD
Outline: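 10 uM apoferritin + 50% sat. 1-AMA, PBS; cpd 10 min RT; Ex380/Em535 endpoint; normalized to free probe vs complex; 4-param Hill fit; propofol titration as pos. ctrl.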
With `O=C(NC1CCCCC1)C(c1ccccn1)N(C(=O)c1csnn1)C1CC1` (stereo not given) the Potency was inconclusive: 7.94 µM [inhibitor, full curve, poor fit].
With `CCC(=O)Nc1sc2c(c1C#N)CC(C)(CC)OC2` (stereo not given) the Potency was inconclusive: 28.2 µM [inhibitor, partial curve].
With `Cc1ccc(NC(=O)c2cc(S(=O)(=O)NCCc3ccccc3)ccc2F)cc1Cl` the Potency was inconclusive: 17.8 µM [inhibitor, partial curve].
`S=C(c1ccc(-c2ccc(Cl)cc2Cl)o1)N1CCCCC1` was tested, and the “activity change, negative = displacement” value was inactive: -2.29%.
With `Cc1ccc(Cl)cc1NS(=O)(=O)Cc1ccccc1` the Potency was inconclusive: 20 µM [inhibitor, partial curve].
For `Cc1cc(C)n2nc(C(=O)NCc3ccccc3)nc2n1`, the “activity change, negative = displacement” value was inactive: -3.56%.
For `COc1nnc(-c2ccc(N3CCCCC3)c(NC(C)=O)c2)c2ccccc12`, the Potency was inconclusive: 25.1 µM [inhibitor, partial curve].
With `CCCN(CCC)S(=O)(=O)c1ccc(NC(=O)Cc2cccs2)cc1` the Potency was inconclusive: 17.8 µM [inhibitor, partial curve].
In the case of `Cc1cc(F)ccc1NCc1ccccc1[N+](=O)[O-]`, the Potency is reported as inconclusive: 31.6 µM [inhibitor, partial curve].
`Oc1ccc(Cl)cc1CNc1ccc(Br)cn1` was tested, and the Potency was inconclusive: 31.6 µM [inhibitor, single point].
For `COC(=O)c1sccc1NC(=O)Nc1ccc(C)cc1C`, the “activity change, negative = displacement” value was inactive: -2.41%.
With `CCOC(=O)c1cccc(NC(=O)C2CCCN(S(=O)(=O)c3ccc4c(c3)oc(=O)n4C)C2)c1` (stereo not given) the “activity change, negative = displacement” value was inactive: -0.87%.
With `Cc1ccc(-c2cn3nc(C)c(C)nc3n2)cc1` the “activity change, negative = displacement” value was inactive: 499%.
For `CCc1ccc(NC(=O)C2=CC(c3ccc(OC)cc3)=NS(=O)(=O)N2C)cc1`, the Potency was inconclusive: 31.6 µM [inhibitor, partial curve].
`COc1ccc([N+](=O)[O-])cc1NC(=O)C1(c2ccccc2)CCOCC1` was tested, and the Potency was inconclusive: 28.2 µM [inhibitor, single point].
For `COc1ccc(-c2noc(CCC(=O)Nc3ccc4c(c3)OCCO4)n2)cc1`, the Potency was inconclusive: 25.1 µM [inhibitor, partial curve].
In the case of `Cc1ccc2nc(N3CCN(Cc4ccc(F)cc4)C3=O)c(C)cc2c1`, the Potency is reported as inconclusive: 12.6 µM [inhibitor, partial curve].
In the case of `Cc1nc(Nc2ccc(Cl)cc2)cc(-c2ccccc2)n1`, the Potency is reported as inconclusive: 3.55 µM [inhibitor, full curve, poor fit].
In the case of `Nc1nc2sc3c(c2c(=O)s1)CCCC3`, the Potency is reported as inconclusive: 56.2 µM [inhibitor, single point].
For `Cc1cc(C(=O)OCC(=O)Nc2cccc(S(=O)(=O)N(C)C)c2)c2ccccc2n1`, the Potency was inconclusive: 25.1 µM [inhibitor, single point].
With `Cc1c(C(=O)N2CCCC2)oc2ccc(Br)cc12` the “activity change, negative = displacement” value was inactive: -23%.
With `CCOc1cc(C2C3=C(CC(C)(C)CC3=O)OC3=C2C(=O)CC(C)(C)C3)cc([N+](=O)[O-])c1O` the Potency was inconclusive: 14.1 µM [inhibitor, partial curve].
With `O=C(COC(=O)c1cccs1)Nc1nc(-c2ccccc2)cs1` the “activity change, negative = displacement” value was inactive: 1.63%.
With `Cc1ccc(NC(=O)COC(=O)CNC(=O)C2CCCCC2)c(Br)c1` the Potency was inconclusive: 50.1 µM [inhibitor, single point].
`CCS(=O)(=O)c1ncc(Cl)c(C(=O)Nc2ccc(C)cc2)n1` was tested, and the “activity change, negative = displacement” value was inactive: -6.8%.
With `CCN(CC)c1ccc(-n2c(C)cc(C=O)c2C)cc1` the Potency was inconclusive: 35.5 µM [inhibitor, partial curve].
For `COc1cc2c(cc1OC)C(COc1ccc3c(C)cc(=O)oc3c1)N(C(=O)C(C)C)CC2` (stereo not given), the Potency was inconclusive: 6.31 µM [inhibitor, partial curve].
In the case of `Cc1cccc(-n2c(C)cc(/C=N/NC(=O)c3cccc([N+](=O)[O-])c3C)c2C)c1`, the Potency is reported as inconclusive: 28.2 µM [inhibitor, partial curve].
`Cc1ccc(C)c(CNC(=O)c2ccc3c(c2)nc2n3CCCCC2)c1` was tested, and the Potency was inconclusive: 35.5 µM [inhibitor, partial curve].
For `CC(=O)Nc1ccc(/C=N/NC(=O)CNC(=O)c2ccccc2)cc1`, the Potency was inconclusive: 6.31 µM [inhibitor, full curve].
In the case of `Cc1ccc(Nc2nc(C)cs2)cc1`, the Potency is reported as inconclusive: 39.8 µM [inhibitor, partial curve].
In the case of `Cc1cc(C(=O)CSc2nnc(-c3ccco3)o2)c(C)n1Cc1ccco1`, the Potency is reported as inconclusive: 35.5 µM [inhibitor, partial curve].
`Cc1c(Br)ccc(NC(=O)Cn2nc(-c3cccs3)ccc2=O)c1C` was tested, and the Potency was inconclusive: 3.55 µM [inhibitor, full curve].
With `Cc1ccc(NC(=O)CSCc2ccco2)cc1` the Potency was inconclusive: 25.1 µM [inhibitor, partial curve].
In the case of `COc1ccc(NS(=O)(=O)c2ccc3c(c2)CCN3C(=O)CCC(=O)O)cc1Cl`, the “activity change, negative = displacement” value is reported as inactive: -9.43%.
In the case of `COc1cccc(C(=O)N2CCN(C3CCN(Cc4ccccc4)CC3)CC2)c1`, the “activity change, negative = displacement” value is reported as inactive: -8.35%.
With `CCN(CC)C(=O)c1sc2nc(-c3ccc(OC)cc3)cn2c1C` the “activity change, negative = displacement” value was inactive: -10.8%.
In the case of `COc1ccc(S(=O)(=O)NCCCO)cc1-c1nnc2c3ccccc3c(C)nn12`, the “activity change, negative = displacement” value is reported as inactive: -2.22%.
For `N/C(=N\OC(=O)Nc1ccc(Cl)c(Cl)c1)c1ncc(C(F)(F)F)cc1Cl`, the Potency was inconclusive: 35.5 µM [inhibitor, partial curve].
In the case of `Cc1ccc(NC(=O)Cn2nc(-c3ccncc3)ccc2=O)cc1Cl`, the Potency is reported as inconclusive: 31.6 µM [inhibitor, single point].
In the case of `CC(C)NC(=O)/C(C#N)=C\c1ccc(N(C)C)o1`, the Potency is reported as inconclusive: 25.1 µM [inhibitor, partial curve].
In the case of `Cc1ccc(CNC(=O)CSc2nc3[nH]ncc3c(=O)[nH]2)cc1`, the “activity change, negative = displacement” value is reported as inactive: -2.73%.
In the case of `Brc1cccc(-c2nc(-c3ccncc3)no2)c1`, the “activity change, negative = displacement” value is reported as inactive: -16%.
With `CC(C)OC(=O)C1CC=CCC1C(=O)Nc1ccc(Cl)cc1` (stereo not given) the Potency was inconclusive: 50.1 µM [inhibitor, single point].
`COc1cccc(NC(C)C(=O)Nc2cc([N+](=O)[O-])ccc2Cl)c1` (stereo not given) was tested, and the Potency was inconclusive: 31.6 µM [inhibitor, single point].
